# PubChem BioAssay AID1508642 (National Center for Advancing Translational Sciences (NCATS), 2021)
# About 200 (0.47%) of roughly 43,000 compounds were called active. Not shown: some 12% with an inconclusive outcome. Calls come from the whole dose curve; as a rule, active = well fitted cell-killing curve with a large enough effect; inconclusive = small, poorly fitted or top-dose-only effect, or effect the other way; inactive = flat fitted curve, though single readings scatter. Some of the results follow.
# Assay: Cell viability qHTS assay in S16 Pmp22-F2sN cells; note: nearly all actives have a fitted effect of over 65% in size
# Conditions: S16 Pmp22-F2sN Schwann cells (luciferase reporters placed in the Pmp22 gene) viability, CellTiter-Glo, 24 h; series mostly up to 57.5 µM; activity change, negative = cytotoxicity: at the top concentration
# In short: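 Luminescence from CellTiter-Glo, read by CCD camera after a 15 min room-temperature incubation, served as the viability signal. Reporter Schwann cells (S16 Pmp22-F2sN) had been treated with pin-transferred compounds for 24 h at 37C.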
# % is set by controls: 0 for no effect and ±100 for the full control effect.
row,SMILES,"activity change, negative = cytotoxicity"
1,COc1ccc(C)cc1Nc1nc2ccccc2c2nnc(C)n12,inactive: 10.5%
2,CC(C)c1nc2ccc(C(=O)NCc3ccc(N(C)C)cc3)cc2o1,inactive: 13.2%
3,Cc1ccc(-n2nc3c(=O)n(CCCC(=O)NCCc4ccccc4)nc(C)c3c2C)cc1,inactive: 5.84%
4,Cc1ccc(C(=O)Nc2ccc(Br)cc2)cc1S(=O)(=O)N1CCOCC1,inactive: -9.31%
5,CC(=O)c1cccc(NC(=O)Cn2c(=O)c(CNc3ccc(C)cc3)cc3cc4c(cc32)OCCO4)c1,inactive: 3.07%
6,COc1ccccc1C(=O)Nc1ccc2nc(N3CCC(C)CC3)cc(C)c2c1,inactive: -3.79%
7,CCOc1ccccc1NS(=O)(=O)c1c(C)nc2sccn2c1=O,inactive: 3.76%
8,Cc1ccc(-c2sc(C(=O)Nc3ccc(Br)cc3)cc2CC(=O)O)cc1,inactive: 1.93%
9,CCn1c(=O)c2cc(C(=O)N(CCCOC(C)C)Cc3ccco3)sc2c2ccccc21,inactive: -3.31%
10,Cc1ccc(CNC(=O)C(=O)NCC(c2cccs2)S(=O)(=O)c2ccc(C)cc2)cc1 (centres undefined),inactive: 6.26%
11,COC(=O)c1sccc1S(=O)(=O)N(CC(=O)NCc1ccccc1)c1ccccc1,inactive: 25.5%
12,COc1ccc(NC(=O)CSc2nc3c([nH]c4ccccc43)c(=O)n2C)cc1,inactive: 13%
13,Nc1c(C(=O)Nc2ccccc2Cl)c2ccccn2c1C(=O)c1ccc(Cl)cc1,inactive: -10.1%
14,Cc1ccc(CNC(=O)CSc2ncc(S(=O)(=O)c3ccc(Br)cc3)c(=O)[nH]2)cc1,inactive: 19.1%
15,COc1ccc(NS(=O)(=O)c2ccc3c(c2)C(C(C)C)C(=O)N3)cc1 (centres undefined),inactive: -21.3%
16,CCc1nn(CC(=O)NCCC(C)C)c(=O)c2cc3occc3n12,inactive: 13.6%
17,CCn1c(C)c(C2N3CC4(C)CN2CC(CC)(C3)C4=O)c2ccccc21 (centres undefined),inactive: 9.37%
18,Cc1nn(C(=O)c2ccccc2F)c(C)c1S(=O)(=O)N1CCOCC1,inactive: -6.61%
19,COc1ccc(Nc2ncnc3c2cnn3-c2ccc(C)cc2C)cc1,inactive: 7.48%
20,COc1cccc(CC(=O)Nc2ccc3nc(N4CCC(C)CC4)cc(C)c3c2)c1,inactive: 2.42%
21,Cc1c(C(=O)N2CCC(C)CC2)c(S(=O)(=O)NCc2ccccc2)c(C)n1C,inactive: 5.22%
22,CCCN1CCN(CCCNC(=O)c2ccc3c(c2)sc2nc(-c4ccc(OC)cc4)cn23)CC1,inactive: 18.4%
23,CCOC(=O)C1CCN(C(=O)Cn2nc(C)n3c(cc4sccc43)c2=O)CC1,inactive: -0.0148%
24,Cn1c(SCC(=O)N2CCOCC2)ncc(C(=O)Nc2ccccc2)c1=O,inactive: 0.293%
25,CC1=C(C(=O)NCc2ccccc2Cl)C2(CCCCCC2)OC1=O,inactive: -13.6%

row,SMILES,"activity change, negative = cytotoxicity"
1,Cc1ccc2c(CNCC(C)c3ccccc3)c(C(=O)O)n(Cc3ccccc3C)c2c1 (centres undefined),inactive: 8.69%
2,COc1ccc(NC(=O)c2ccc3c(c2)N(Cc2cccc(Cl)c2)C(=O)c2ccccc2S3=O)cc1Cl (centres undefined),inactive: -18.3%
3,CC1CCN(c2nc3c(S(=O)(=O)c4ccccc4)nnn3c3ccc(Cl)cc23)CC1,inactive: -19.5%
4,CCc1ccc(NC(=O)CCn2c(-c3ccc(OC)cc3)cc(C(C)=O)c2C)cc1,inactive: -5.92%
5,CC(=O)c1cccc(NC(=O)CN2C(=O)c3ccccc3Sc3ncccc32)c1,inactive: 2.14%
6,Cc1c(C)n(Cc2ccccc2)c2ccc(C(=O)NCc3ccccc3F)cc12,inactive: -10.2%
7,O=C(c1cnn(-c2cccc(F)c2)c1-n1cccc1)N1CCN(c2ccccc2F)CC1,inactive: -3.25%
8,COc1ccccc1NC(=O)NCCCN1CCN(c2ccc(F)cc2)CC1,inactive: 0.797%
9,Cc1ccc(N2C(=O)CC(c3ccccc3F)C3=C2COC3=O)cc1Cl (centres undefined),inactive: 13.9%
10,CCc1ccccc1NC(=O)Cn1c(=O)n(Cc2ccco2)c(=O)c2ccccc21,inactive: 6.8%
11,COc1ccc(-c2c(C#N)c(SCC(=O)Nc3cccc(Cl)c3)nc(C)c2C(=O)Nc2ccccc2)cc1OC,inactive: 2.17%
12,CCc1nnc2c(N3CCN(c4cccc(C)c4)C(C)C3)nc3ccccc3n12 (centres undefined),inactive: 14%
13,Cc1cccc(S(=O)(=O)Nc2cccc(-c3ccc(N4CCCCC4)nn3)c2)c1,inactive: 0.295%
14,CCN(CC)C(=O)Cn1c(=O)n(-c2ccc(Cl)c(Cl)c2)c(=O)c2c(C)c(C(=O)N(CC)CC)sc21,inactive: -13.1%
15,COc1ccc(CCNC(=O)Cc2c(C)c3cc4c(C(C)(C)C)coc4c(C)c3oc2=O)cc1OC,inactive: -28.8%
16,Cc1cc(C)c2c(c1)NC(=O)C2(O)c1c[nH]c2ccccc12 (centres undefined),inactive: -1.31%
17,Cc1ccc2c(c1)cc1c(=O)n(Cc3cccc(Cl)c3)nc(C)n12,inactive: 5.85%
18,COc1ccc(Nc2oc(-c3ccc(COc4cccc(C)c4)o3)nc2C#N)cc1,inactive: -3.74%
19,COC(=O)c1cc(NC(=O)CCc2c(C)nc3c(c(C)nn3C(C)(C)C)c2C)cc(C(=O)OC)c1,inactive: -7.18%
20,Cn1nnnc1SCCCNCc1ccc(Cl)cc1,inactive: -0.798%
21,Cc1ccc(C(=O)N(Cc2ccco2)Cc2sccc2C)cc1,inactive: -2.94%
22,CC1CCc2onc(C(=O)N3CCN(c4ccccc4)CC3)c2C1 (centres undefined),inactive: -0.176%
23,O=C(COc1ccccc1F)Nc1ccccc1C(=O)OCc1cc(=O)n2nc(C3CC3)sc2n1,inactive: 6.73%
24,O=C(NCc1ccc(Cl)cc1)c1cc2c(s1)-c1ccccc1SC2,inactive: 16%
25,O=C(Nc1cc(Cl)ccc1Cl)c1cc(S(=O)(=O)NCCc2ccccc2)ccc1F,inactive: -9.23%

row,SMILES,"activity change, negative = cytotoxicity"
1,Cc1nc(N2CCOCC2)c2c(C(=O)N3CCN(c4ccccc4F)CC3)c(C)oc2n1,inactive: -1.87%
2,Cc1ccc(CN2COc3ccc4c(C)cc(=O)oc4c3C2)cc1,inactive: 3.35%
3,CCN1CCN(c2ncc3c(n2)CCN(Cc2cc(Br)cs2)C3)CC1,inactive: -12.2%
4,CCC(C)NC(=O)c1cc2cc(S(=O)(=O)N3CCCCC3)ccc2n1C (centres undefined),inactive: -19.3%
5,Cc1c(O)nc(SCC(=O)Nc2ccc(Cl)cc2Cl)n(-c2ccc(F)cc2)c1=O,inactive: 3.93%
6,O=C(NCC(c1ccc2c(c1)OCO2)N1CCOCC1)c1ccccc1 (centres undefined),inactive: 5.97%
7,Cc1nn(C)c2c1c(C(F)(F)F)cc(=O)n2CC(=O)NCc1ccc(OC(C)C)cc1,inactive: -21.9%
8,CCC(C)c1ccc(OCC(=O)Nc2cccc3ccc(C)nc23)cc1 (centres undefined),inactive: 0.252%
9,Cc1ccc(CNS(=O)(=O)c2ccc(N3CCCCS3(=O)=O)cc2)cc1,inactive: -26.7%
10,O=C(CNC(=O)c1ccc(Cl)cc1)OCc1cc(=O)n2nc(C3CC3)sc2n1,inactive: -4%
11,Cc1cn(C)c(CC(=O)NCc2cccc(Cl)c2)c1C(=O)O,inactive: -0.461%
12,CC(C)(C)c1ccc(S(=O)(=O)N2CCC(Oc3ccc(-n4cnnn4)cc3)CC2)cc1,inactive: 4.45%
13,COc1cc(Cn2c(=O)oc3ccc(C)cc32)ccc1OCCC(C)C,inactive: -23.4%
14,CC(C)(C)c1ccc(CSC2=Nc3ccccc3C3=NC(CC(=O)NCc4cccs4)C(=O)N23)cc1 (centres undefined),inactive: -3.46%
15,CN1c2ccc(Cl)cc2-c2nc(SCC(=O)NCc3ccc(F)cc3)ncc2S1(=O)=O,inactive: 5.89%
16,CC1=C(C(=O)Nc2ccc(C)cc2C)C(c2ccccc2)n2nc(SCC(=O)c3ccc(C)cc3)nc2N1 (centres undefined),inactive: -1.63%
17,O=C(CSc1nc2ccsc2c(=O)n1Cc1ccc(F)cc1)NCc1ccc(Cl)cc1,inactive: -2.52%
18,COc1ccc(NC(=O)Cn2c(=O)oc3ccccc32)cc1,inactive: 5.86%
19,CCc1ccccc1NC(=O)CCNS(=O)(=O)c1ccc2c(c1)CCCC(=O)N2,inactive: 6.66%
20,COc1cccc2sc(NC(=O)c3ccc4c(c3)OCCO4)nc12,inactive: 2.77%
21,CCc1nc2ccc(C(=O)N3CCN(c4ccccc4F)CC3)cc2nc1CC,inactive: -25.8%
22,Cc1ccc(Cl)cc1N1CCN(C(=O)Cn2cnc3onc(-c4ccc(F)cc4)c3c2=O)CC1,inactive: -6.02%
23,CC(=O)c1ccc(NC(=O)Cn2nc(C(F)(F)F)c3c2CCC3)cc1,inactive: -4.76%
24,Cc1ccc(CSc2c(C)cnc3c2c(=O)n(C)c(=O)n3C)cc1,inactive: 1.18%
25,CCCCNC(=O)CCC1N=C2c3ccccc3N=C(SCC(=O)NCCc3ccc(OC)c(OC)c3)N2C1=O (centres undefined),inactive: 5.73%

row,SMILES,"activity change, negative = cytotoxicity"
1,Cc1ccc2nc(-c3ccc(NC(=O)Cc4ccccc4)cc3)sc2c1,inactive: -2.98%
2,CCN(CC)CCNC(=O)CCn1c(=O)c2cccn2c2cccnc21,inactive: 9.9%
3,Cc1ccc(CNC(=O)CCNS(=O)(=O)c2ccc3c(c2)oc(=O)n3C)cc1,inactive: 8.7%
4,O=C(COc1ccc(Br)cc1Br)Nc1ccc(S(=O)(=O)Nc2ncccn2)cc1,inactive: -2.69%
5,Cc1cc(C)c(S(=O)(=O)Nc2ccc3oc(C)c(C(=O)OC(C)C)c3c2)cc1C,inactive: -0.568%
6,Cc1oc(-c2cccc(Cl)c2)nc1CN1CCC(C(=O)NC(C)C)CC1,inactive: 5.61%
7,Cc1ccc(Cl)cc1NC(=O)Cn1c(=O)cc(C)c2c(C)nn(C)c21,inactive: 19.4%
8,Cc1ccc(NC(=O)CC2Oc3ccc(C)cc3NC2=O)c(C)c1 (centres undefined),inactive: -2.78%
9,CCOc1ccc(NC(=O)Cn2c(=O)n(CCc3ccccc3)c(=O)c3c4c(sc32)CCCC4)cc1,inactive: 10.3%
10,COc1cccc(Nc2nnc(-c3cc4ccc(O)cc4oc3=O)s2)c1,inactive: 4.31%
11,O=C(CCn1c(=O)c2sccc2n(Cc2ccc(F)cc2)c1=O)NCc1ccc2c(c1)OCO2,inactive: 13.1%
12,COc1cccc(C2CC(=O)Nc3c2c(=O)n(C)c2nc4ccccc4n32)c1OC (centres undefined),inactive: -4.14%
13,Cc1ccc(-n2nc3cc(C)c(NC(=O)c4ccc(-c5ccccc5)o4)cc3n2)cc1,inactive: -14.8%
14,CCOc1ccccc1CNCCCSc1nnnn1C,inactive: -0.126%
15,COc1cccc(CNC(=O)Cn2ncc3c(=O)oc4ccccc4c32)c1,inactive: -11.1%
16,Cc1ccc(CSc2cn(CC(=O)N3CCCCCC3)c3ccccc23)cc1,inactive: -25.4%
17,CCCN(Cc1cc2cccc(C)c2[nH]c1=O)C(=O)c1cccc(Cl)c1,inactive: -16.7%
18,CCOc1ccc(C2c3c(-c4cc(C)ccc4O)n[nH]c3C(=O)N2Cc2cccnc2)cc1OCC (centres undefined),inactive: 1.59%
19,COc1ccccc1NC(=O)CC(C)n1nc(C)cc1C (centres undefined),inactive: -0.0889%
20,Cc1ccc(N(CC(=O)N2CCN(c3ccc(F)cc3)CC2)S(=O)(=O)c2c(C)noc2C)cc1,inactive: -2.63%
21,CC(C)(C)C(=O)NCCc1nc2ccccc2n1CCCCOc1ccccc1,inactive: -1.06%
22,Cc1cc(F)ccc1NC(=O)CCS(=O)(=O)c1cc2c(cc1C)NC(=O)CO2,inactive: 1.38%
23,COc1ccccc1Nc1ncc2c(n1)CCN(Cc1ccc(C)s1)C2,inactive: 11.9%
24,COc1ccc(OC)c(CCNC(=O)CCCn2c(=O)c3cccn3c3ccc(F)cc32)c1,inactive: 1.8%
